Out of some 370,000 compounds screened, about 150 (0.041%) were called active. The shares of active, inactive and inconclusive entries below differ from those in the screen. Calls come from the whole dose curve; as a rule, active = well fitted inhibition curve with a large enough effect; inconclusive = small, poorly fitted or top-dose-only effect; inactive = flat fitted curve, though single readings scatter. No potency is given beside an inconclusive call; the fits are too rough.
These compounds were tested against Beta-lactamase (Escherichia coli (strain K12)) (UniProt P00811) (assay: qHTS Inhibitors of AmpC Beta-Lactamase (assay with detergent)). Conditions: AmpC hydrolysis of nitrocefin, absorbance 480 nm, 0.01% Triton; activity change, negative = inhibition: at 114 µM (top of the series).
UniProt P00811, sequence (P00811 whole entry, looked up): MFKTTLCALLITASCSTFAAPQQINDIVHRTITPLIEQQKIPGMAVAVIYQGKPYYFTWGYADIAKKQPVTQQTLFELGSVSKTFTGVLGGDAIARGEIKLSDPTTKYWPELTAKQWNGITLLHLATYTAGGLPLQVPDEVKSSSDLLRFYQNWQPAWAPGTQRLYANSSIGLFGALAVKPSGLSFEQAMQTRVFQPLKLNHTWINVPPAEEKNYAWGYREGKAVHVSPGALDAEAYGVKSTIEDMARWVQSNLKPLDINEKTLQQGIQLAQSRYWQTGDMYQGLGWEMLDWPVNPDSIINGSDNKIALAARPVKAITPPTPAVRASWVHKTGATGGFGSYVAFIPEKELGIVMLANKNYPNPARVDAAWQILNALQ
In short: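 AmpC (5.3 nM in the dispensed reagent) in 20 mM phosphate pH 7.0 with 0.01% (detergent screen) or 0.0001% Triton X-100 was preincubated with compounds for 15 min at room temperature. Nitrocefin was then added from an 800 uM solution, and hydrolysis was followed at 480 nm.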
Note: nearly all actives have a fitted effect of over 25% in size.
Potency is the fitted concentration of half-maximal effect; tags give direction and shape of the fitted curve.
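Throughout, for activity change, negative = inhibition: 0% = no-compound wells and -100% = no-enzyme wells.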

SMILES | activity change, negative = inhibition | Potency
COc1ccc(NC(=O)CC2C(=O)N(c3ccccc3)C(=O)N2CCc2sccc2C)cc1 (centres undefined) | inactive: 1.63% | 
Cc1cccc(NC(=O)CCCn2nc(C)c3c(C)n(-c4ccccc4)nc3c2=O)c1C | inactive: -6.73% | 
C=CCNC(=S)N1CCC(C(=O)c2ccc(Cl)cc2)CC1 |  | inconclusive [inhibitor, partial curve]
Cc1cc(C)n(C2CCCCC2OC(=O)c2ccccc2F)n1 (centres undefined) | inactive: -4.54% | 
Cc1cc(C)n2nc(C(=O)OCC(=O)Nc3cc(Cl)ccc3C)nc2n1 |  | inconclusive [inhibitor, full curve, poor fit]
O=C(N/N=C/c1cc(Cl)c(O)c(Cl)c1)c1cc2c(ccc3ccccc32)o1 | inactive: -11% | 
O=C(c1cc(Br)c(Br)s1)N1CCOCC1 |  | inconclusive [inhibitor, full curve, poor fit]
O=C(CCCCCn1c(=S)[nH]c2ccc(N3CCOCC3)cc2c1=O)NC1CCN(Cc2ccccc2)CC1 |  | inconclusive [inhibitor, single point]
COC(=O)c1ccc(NS(=O)(=O)c2ccc3c(c2)oc(=O)n3C)cc1 |  | inconclusive [inhibitor, partial curve, poor fit]
CCn1nnc(NC(=O)c2cccc(-c3cc4ccccc4oc3=O)c2)n1 |  | inconclusive [inhibitor, partial curve, poor fit]
COc1ccc(NC(=O)c2oc3ccccc3c2C)c(OC)c1 |  | inconclusive [inhibitor, full curve, poor fit]
Cc1ccc(-n2nc(C(=O)N(C)c3ccc(C)c(C)c3)c3c4ccccc4n(C)c3c2=O)cc1 | inactive: 0.45% | 
CCCCOP(=O)(c1ccc(N(C)C)cc1)C(O)c1cccnc1 (centres undefined) |  | inconclusive [inhibitor, partial curve]
CCN(CC)S(=O)(=O)c1ccc(C(=O)NC2=NCCS2)cc1 | inactive: -0.0618% | 
O=C(Nc1ccc(S(=O)(=O)Nc2nccs2)cc1)c1ccc(F)c(S(=O)(=O)N2CCOCC2)c1 |  | inconclusive [inhibitor, single point]
CC(=O)Nc1ccc(-c2csc(NC(=O)CN3C(=O)NC4(CCCC4)C3=O)n2)cc1 | inactive: -9.39% | 
Cc1ccc(S(=O)(=O)N(C)CC(=O)NCCc2c[nH]c3ccccc23)cc1 |  | inconclusive [inhibitor, full curve, poor fit]
CCOc1ccc(C2NC(=O)c3sc(=S)n(-c4ccccc4)c3N2)cc1 (centres undefined) |  | inconclusive [inhibitor, full curve]
COc1ccc(-c2csc3ncnc(NCCN4CCOCC4)c23)cc1 |  | inconclusive [inhibitor, full curve]
CC(C)CNC(=O)CCc1nc(-c2ccccc2)no1 | inactive: 3.84% | 
O=C(CCC1CCCN(C(=O)c2cccnc2)C1)NCc1ccccc1F (centres undefined) |  | inconclusive [inhibitor, full curve, poor fit]
Cc1cc2c(c(=O)o1)C1O[C@](c3ccsc3)(Cc3ccccc31)O2 |  | inconclusive [inhibitor, full curve, poor fit]
O=C(N/N=C/C1CC2CCC1C2)c1ccc2c(c1)OCO2 (centres undefined) |  | inconclusive [inhibitor, full curve, poor fit]

SMILES | activity change, negative = inhibition | Potency
O=C(Nc1nnc(S(=O)(=O)N2CCN(c3ccc(F)cc3)CC2)s1)c1ccco1 | inactive: -0.0539% | 
CC(C)(C)n1nc2c(c1NC(=O)COc1ccc(Cl)cc1)CSC2 |  | inconclusive [inhibitor, full curve, poor fit]
COc1ccc(S(=O)(=O)N2CCCCCC2)cc1C(=O)N(C)CC(=O)Nc1c(Cl)cccc1Cl |  | inconclusive [inhibitor, partial curve, poor fit]
Cn1c2ccccc2c2cc(/C=N/NC(=O)c3cc(O)cc(O)c3)ccc21 | inactive: 0.633% | 
CN(C)/C=C1\N=C(c2cccs2)OC1=O |  | inconclusive [inhibitor, full curve]
CC1(C)Cc2ccccc2C2=NNC(=O)C2=N1 | inactive: -2.25% | 
COc1ccc(CNC(=O)CCCn2ccc3cc(S(=O)(=O)N4CCCC4)ccc32)cc1 |  | inconclusive [inhibitor, single point]
O=C(Cc1cccs1)N1CCN(S(=O)(=O)c2cccc([N+](=O)[O-])c2)CC1 |  | inconclusive [inhibitor, full curve, poor fit]
Cc1nc(C)n(C(C)CNS(=O)(=O)c2ccc(C)c(C)c2)n1 (centres undefined) |  | inconclusive [inhibitor, single point]
CCN(Cc1nc(-c2ccccc2)no1)C(=O)c1ccoc1C | inactive: -7.48% | 
Cc1c(NP(=O)(C(C)(C)C)C(C)(C)C)c(=O)n(-c2ccccc2)n1C |  | inconclusive [inhibitor, partial curve]
O=[N+]([O-])c1ccc(Nc2ccccc2)nc1 |  | inconclusive [inhibitor, full curve]
CC(C)[C@@H](NC(=O)C1CCN(C(=O)[C@@H]2CCCN2C(=O)OC(C)(C)C)CC1)C(=O)NCc1ccc(F)cc1 |  | inconclusive [inhibitor, full curve]
COC(=O)C1=C(C)N(CCc2ccc(OC)c(OC)c2)C(=O)/C1=C\N(C)C | inactive: -1.72% | 
CCN(CC)S(=O)(=O)c1cc(-c2ccc(=O)n(C(C)C(=O)Nc3cccc(C#N)c3)n2)ccc1C (centres undefined) | inactive: -2.35% | 
CCOc1ccccc1NC(=S)NC(=O)CCCOc1ccc(Cl)cc1Cl |  | inconclusive [inhibitor, full curve, poor fit]
CCN(CC)c1ccc(/C=N/N2C(=O)c3ccccc3C2=O)c(O)c1 |  | inconclusive [inhibitor, full curve]
O=C(CNC(=O)C1COc2ccccc2O1)Nc1cc(Cl)ccc1Cl (centres undefined) |  | inconclusive [inhibitor, full curve, poor fit]
CCn1c(SCC(=O)Nc2ccc(N3CCOCC3)cc2)nnc1-c1ccc(OC)cc1 |  | inconclusive [inhibitor, single point]
COc1cc(/C=C/c2ccc3cccc(OC)c3n2)c(OC(C)=O)c([N+](=O)[O-])c1 |  | inconclusive [inhibitor, full curve, poor fit]
CCCCOc1ccc(C(=O)Nc2cc(-c3cn4cccnc4n3)ccc2OC)cc1 | inactive: -1.06% | 
CC(=O)Nc1ccc(S(=O)(=O)Nc2cccc(-c3cn4c(n3)SCC4)c2)cc1 | inactive: 0.355% | 
CN(C)C/C(Cl)=C(\Cl)c1ccccc1 |  | inconclusive [inhibitor, full curve]

SMILES | activity change, negative = inhibition | Potency
COc1ccc(OC)c(CN2CCN(CCc3ccccc3)C(CCO)C2)c1 (centres undefined) | inactive: -0.658% | 
CC(C)(C)NC(=O)CSc1nnc(-c2ccccn2)n1-c1ccccc1 |  | inconclusive [inhibitor, full curve, poor fit]
Cc1noc(C)c1COc1ccccc1C(=O)NCCOc1ccccc1F | inactive: 5.29% | 
Cc1cc(C)c(C#N)c(Nc2ccccc2Cl)n1 |  | inconclusive [inhibitor, full curve, poor fit]
N/C(=N\OC(=O)c1ccc([N+](=O)[O-])cc1)c1ccc(Br)cc1 |  | inconclusive [inhibitor, full curve]
C=C1CN(CC(=O)OC)S(=O)(=O)c2ccccc21 | inactive: -6.41% | 
COCCn1c(-c2ccc(Br)cc2)csc1=Nc1cccnc1 | inactive: -13.7% | 
O=C(COc1ccc(F)cc1Cl)Nc1ccc(N2CCOCC2)cc1N1CCOCC1 |  | inconclusive [inhibitor, partial curve, poor fit]
CCOC(=O)c1sc2nc(C)nc(NCc3cccnc3)c2c1C | inactive: -0.962% | 
COc1cc(OC)cc(-c2sc3ccc(OC)cc3c2C#CCCO)c1 | inactive: -8.46% | 
Cc1c(NC(=O)/C(C#N)=C/c2ccc(-c3ccccc3Cl)o2)c(=O)n(-c2ccccc2)n1C |  | inconclusive [inhibitor, partial curve, poor fit]
O=C(O)CCn1c(C2CCCCC2)nc2ccccc21 |  | inconclusive [inhibitor, full curve, poor fit]
COc1ccc(CCNC(=O)c2ccc3c(c2)N=C(C)c2ccccc2S3)cc1OC | inactive: 19.7% | 
COc1ccc(/C=c2\s/c(=C/C(=O)c3ccc(C)cc3)[nH]c2=O)cc1OC |  | inconclusive [inhibitor, full curve]
CN(CC(=O)Nc1ccccc1Cl)C(=O)CSc1nnc(-c2ccco2)o1 |  | inconclusive [inhibitor, full curve, poor fit]
CCN1C(=S)N[C@@H](CCc2ccccc2)C(C(=O)OC)=C1C |  | inconclusive [inhibitor, full curve, poor fit]
COc1ccc(NC2CC(=O)N(CCc3ccccc3)C2=O)cc1 (centres undefined) |  | inconclusive [inhibitor, partial curve, poor fit]
c1ccc(-c2noc(-c3ccno3)n2)nc1 | inactive: -5.35% | 
COc1cc(-c2noc(C)c2/C=C/c2ccc(N)cc2)cc(OC)c1OC |  | inconclusive [inhibitor, full curve, poor fit]
Cc1ccccc1N=Cc1cccc(O)c1O |  | inconclusive [inhibitor, partial curve]
CC(=O)Nc1ccc(C(=O)NNC(=O)c2ccc(Cl)cc2)cc1 |  | inconclusive [inhibitor, partial curve]
Cc1noc(C)c1S(=O)(=O)N1CCCC1C(=O)O (centres undefined) |  | inconclusive [inhibitor, full curve]
CCOC(=O)C1=C(CC)Nc2ccccc2N=C1NC(=O)Nc1ccccc1OC |  | inconclusive [inhibitor, full curve, poor fit]
